Experimental data reported in the supplement of paper PMC3334620.
In all, about 33,000 sequences were measured (“E-score (-0.5 to 0.5)”: median about -0.056, highest 2% from about 0.38 on). The list shows a part of the results.

Each sequence was assayed against Stb4 (UniProt P50104) (assay: PBM E-score (8-mer binding enrichment) (E-score (-0.5 to 0.5)); higher = stronger / more preferred TF binding; most listed sequences are background and not binding sites). Conditions: protein concentration: 200 nM; construct: GST-DNA-binding domain.
Summary of the method: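 E-scores (a modified Wilcoxon-Mann-Whitney statistic) were assigned by the Universal PBM Analysis Suite to every ungapped eight-base word pooled with its reverse complement. The input came from universal all-10-mer Agilent arrays made double-stranded by primer extension and probed with GST-tagged yeast transcription factors at about 100-200 nM. Fluorescent anti-GST detected bound protein, and masliner normalised the scans.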

Row | Sequence | PBM E-score
1 | CCCGGGTC | 0.32
2 | AGCGCGGC | 0.0405
3 | CGGGTAAA | 0.424
4 | CTACTCTA | -0.0966
5 | ATTTGGTA | -0.0379
6 | CGATTAAA | 0.178
7 | GATCTGAC | 0.0187
8 | ATTTTTGA | -0.158
9 | AAGTGGTA | -0.0829
10 | CCTCACCA | -0.19
11 | AAGAAATG | -0.0362
12 | AGGGCTCG | 0.104
13 | ACCGAGGG | 0.27
14 | GTCGCTAA | 0.0252
15 | ATATTATG | -0.0655
16 | ATATGCAA | 0.00485
17 | AACTATTA | 0.0616
18 | CTGGTCCC | -0.0143
19 | CCAACGAG | -0.139
20 | ACTTAATG | -0.0296
21 | AGCGTTCC | 0.126
22 | CTATTGAG | -0.21
23 | GATTAATC | 0.358
24 | CATCCTCG | 0.178
25 | AATGTGCA | -0.18

Row | Sequence | PBM E-score
26 | AGTGAGCG | -0.236
27 | GTAAATAC | -0.0115
28 | AAGCAAGC | -0.0717
29 | GGAGTGCA | 0.134
30 | TTGCGAAA | 0.116
31 | AAGTTTCC | 0.151
32 | GAAAAGTA | -0.0737
33 | AGCATGGG | -0.212
34 | GAATGAGA | 0.114
35 | GATCTGCC | 0.0843
36 | AAAGAATC | -0.104
37 | ACAGCAAT | -0.122
38 | GAGCAGCA | -0.0223
39 | CCGTTCCC | 0.273
40 | ATACGATC | 0.0197
41 | AGAGCTAG | -0.164
42 | CTAGAGGA | -0.154
43 | GTAGTCAC | -0.16
44 | AAGGGGTG | -0.286
45 | ACTTCGAT | -0.117
46 | CGCTACTC | 0.0414
47 | AGTGTAGC | 0.0345
48 | GCCTGCAA | -0.18
49 | CTTAAACC | -0.16
50 | GACAATCA | 0.0553

Row | Sequence | PBM E-score
51 | CCTGTTTA | 0.0272
52 | CACGTGGC | -0.357
53 | CGAGTAAG | 0.176
54 | GGACCACC | -0.0377
55 | GGCCCACA | -0.0575
56 | ACAAGTGG | -0.283
57 | CGATGAAC | 0.0607
58 | AGGCGGTC | -0.135
59 | CCTCGCGA | -0.00934
60 | ATCCGTAC | 0.348
61 | ACATGCAA | -0.204
62 | CTTTCTTC | 0.0646
63 | CGATGTAG | -0.145
64 | AACAAATT | -0.00925
65 | GGAACATA | 0.193
66 | CTAACGGA | 0.191
67 | AGAAATAC | -0.086
68 | AGGATACG | -0.23
69 | AGCTAGTA | -0.0622
70 | CTTCAAAC | -0.0775
71 | GCGATGAA | -0.0956
72 | AGCTAGCT | -0.303
73 | AGTATTTA | -0.164
74 | CTGAAACA | 0.0153
75 | ATGGTAGA | -0.105

Row | Sequence | PBM E-score
76 | AACACGGT | 0.0299
77 | GAGGAGGC | -0.196
78 | TAATAACA | 0.0486
79 | GCCATGTA | -0.0485
80 | ACGATCCA | -0.0732
81 | CAGTAATC | -0.225
82 | AGACAAAG | -0.166
83 | AACTTTAT | -0.0518
84 | CGAATGAG | 0.191
85 | ATTTTACG | 0.128
86 | CCTCTAAC | 0.0421
87 | GGCTAAAA | 0.143
88 | ACTGACAT | -0.155
89 | ATAGATCC | 0.146
90 | AGACGAGA | -0.134
91 | GCAATGCC | 0.138
92 | CCACGTAA | -0.236
93 | ATATTCAA | 0.066
94 | GGACAAGA | -0.0939
95 | ACCGGATC | 0.353
96 | GTCCCCCA | -0.144
97 | CCTAAGAA | -0.272
98 | CCACTCCG | 0.146
99 | CTTAGTCA | -0.252
100 | AAGCTACG | -0.208

Row | Sequence | PBM E-score
101 | GTATTGGA | -0.0868
102 | GATTGAGA | -0.0336
103 | AAGGTTGG | -0.024
104 | AATTAGAT | -0.0353
105 | GCATCGCA | -0.193
106 | GCCGAAAC | 0.397
107 | AACGATAC | -0.196
108 | GATAGTCC | -0.00459
109 | TAGTTTAA | -0.0938
110 | AACTCATT | -0.022
111 | CATGCATG | -0.305
112 | AGTGGCCA | -0.252
113 | AGTACCGG | 0.148
114 | AGAATACC | -0.0418
115 | CTAAGTAG | -0.288
116 | GAGGTCGC | 0.00721
117 | CGAGACTC | 0.176
118 | GACCGGGC | 0.0885
119 | TAACCCTA | -0.225
120 | GCGTAGCA | -0.105
121 | ACCGCCGT | 0.0269
122 | GCTCCCCA | -0.311
123 | CTTGGGCA | -0.0924
124 | ATACGTAT | -0.123
125 | AACGATTA | -0.0555

Row | Sequence | PBM E-score
126 | ATCGGCGA | 0.226
127 | ATAGATTC | -0.0305
128 | ACCCTGCA | -0.0213
129 | ATGGCACG | -0.00398
130 | CAACATGG | -0.145
131 | GGGACGTA | 0.0138
132 | AAAAGTGT | -0.256
133 | AATTACCA | 0.0104
134 | GAATCGAC | 0.157
135 | CTAACCTA | -0.033
136 | GAGACTGA | -0.0651
137 | CGCTTACA | -0.127
138 | GCCCATAA | 0.0152
139 | CTGTAGCC | -0.0212
140 | TGTAGCAA | 0.169
141 | GCTCACCA | -0.267
142 | GGGCAGGA | -0.0499
143 | AAGCTTCC | 0.161
144 | ATTATGTC | -0.123
145 | GGAGATCC | 0.115
146 | TTGCAAAA | -0.0544
147 | AATGTCTA | -0.202
148 | CACCGACC | 0.149
149 | AGACCGCA | -0.12
150 | ACTGCGAT | 0.0235

Row | Sequence | PBM E-score
151 | AATGTTAA | 0.109
152 | CAAGCAAG | -0.146
153 | CATTTGGA | 0.0908
154 | AGAGTTCA | -0.313
155 | CGGGGGGA | 0.0522
156 | GACCCGTC | 0.143
157 | AACATATA | -0.0109
158 | AGGGCTGG | -0.147
159 | CTAAGTTC | 0.0377
160 | AAGGGTGC | -0.16
161 | TAGTCTCA | -0.111
162 | ACCCCACA | -0.123
163 | CATTTCCG | 0.421
164 | ACCCAGAG | -0.234
165 | CCCGCCAG | 0.0645
166 | CTACGACA | -0.162
167 | CGTTAGGC | -0.151
168 | CAAAAAGA | -0.0408
169 | AACCTACT | 0.013
170 | CTCGGAGC | 0.395
171 | AGCTCCAA | -0.303
172 | GGCCTCGA | 0.0129
